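Five concentrations, 48 hours, 96-well plates. GI50 = concentration required for 50% inhibition of growth. TGI denotes the concentration required for complete inhibition of growth.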 Bridge positions count the residues as written; N and C are the ends. Square brackets hold non-standard residues; d marks the D form. Peptide text beside a SMILES is read from it. * marks the point of attachment. Cbz = O=C(OCc1ccccc1)*; Aib = CC(C)(N)C(=O)O; OBn = c1ccc(CO*)cc1; βAla = NCCC(=O)O
What follows are compounds tested on NCI-H322M lung (assay: NCI anticancer screen, dose series, 48 h).

Row | Structure (SMILES) | TGI [µM] | GI50 [µM]
1 | CO/N=C(\C(=O)Nc1cncs1)c1csc(NC(c2ccccc2)(c2ccccc2)c2ccccc2)n1 | > 10 | 
2 | CC#CC(=O)Nc1ccccc1CC(c1c[nH]c2ccccc12)c1c[nH]c2ccccc12 | 70.6 | 
3 | N#CC1=C(N2CCCC2)NC(=O)CC1=O | > 100 | 
4 | CC(C)(C)C1=CC(=CC=C2C=CN(CCCCCCCCCCCO)C=C2)C=C(C(C)(C)C)C1=O | 7.21 | 
5 | CC1=CC(=O)NCCN1C | > 100 | 
6 | C=C1C(=O)O[C@H]2[C@H]1CC/C(COC(=O)/C=C\C(=O)NCc1ccc(Cn3c(=O)sn(-c4ccc(C#N)cc4)c3=O)cc1)=C\CC[C@@]1(C)O[C@@H]21 | 8.95 | 2.76
7 | COC(=O)CCC(=O)NC1c2cccc3cccc(c23)Cn2c(=O)n(C)c(=O)n21 (stereo unspecified) | > 100 | 
8 | COC(=O)c1ccc2c(c1)CC1(C2)Cc2cc3c(cc2C1=O)CCC3 (stereo unspecified) | 74.1 | 
9 | NS(=O)(=O)c1nnc(NC(=O)c2ccccc2)s1 | > 100 | 
10 | Cc1ccc(C(=O)/C=C/c2ccccc2O)c(C)c1 | > 100 | 
11 | Brc1ccc2c(-c3nc(-c4c[nH]c5ccc(Br)cc45)cs3)c[nH]c2c1 | 15.9 | 
12 | CSc1ccc(/C=C2/C[N+](C)(C)C/C(=C/c3ccc(SC)cc3)C2=O)cc1 | > 100 | 
13 | COc1ccc(C2CC(=O)c3c(O)c(OC)c(OC)c(OC)c3O2)c(O)c1 (stereo unspecified) | 40 | 0.96
14 | O=C(C[C@@H](C(=O)NCc1cccc(C(F)(F)F)c1)N1C(=O)[C@@H](N2C(=O)OC[C@@H]2c2ccccc2)[C@H]1/C=C/c1ccccc1)NC1CCN(Cc2ccccc2)CC1 | 39.2 | 15.8
15 | CC(=O)OCC1OC(N2C(c3ccccc3)=CC(c3ccccc3)C(C#N)=C2S)C(OC(C)=O)C(OC(C)=O)C1OC(C)=O (stereo unspecified) | > 100 | 
16 | COc1ccc(-c2cc3c(nn2)-c2ccccc2C3=O)cc1 | > 100 | > 100
17 | CCc1cccc(C)c1NC(C)=O | > 100 | 
18 | CCOC(=O)CC(NC(=O)c1nc[nH]c1[N+](=O)[O-])C(=O)OCC (stereo unspecified) | > 100 | 
19 | COc1cc([C@@H]2c3cc4c(cc3C(O[C@@H]3O[C@@H]5CO[C@@H](c6cccs6)OC5[C@H](O)[C@H]3O)C3COC(=O)[C@@H]32)OCO4)cc(OC)c1O (stereo partly specified) | 5.38 | 0.963
20 | C=CCN1C(=O)/C(=C/c2ccccc2)NC1=S | > 100 | 
21 | CC[C@]12C=CCN3CC[C@@]4(c5ccc(OC)cc5N(C)[C@H]4[C@@](O)(C(=O)OC)[C@@H]1OC(C)=O)[C@@H]32 | > 200 | 
22 | O=C(CCc1ccc(O)cc1)NCCc1ccc(O)cc1 | > 100 | 
23 | O=C1C(Br)=CC2(C=C1Br)CCN=c1c(O)c3c(c(O)c12)=NC=N3 | 29.9 | 
24 | CCCN=C(NC(=O)c1ccc(Cl)cc1)SC | > 100 | 
25 | CC(=O)OC1CC2OC(Cc3ccccc32)O1 (stereo unspecified) | > 100 | 

Row | Structure (SMILES) | TGI [µM] | GI50 [µM]
26 | CCOC(=O)N/N=C(/N)Cc1ccccc1 | > 100 | 
27 | CSc1nc(Cl)c2c(n1)Sc1nc3cc4c(cc3n1C2O)OCO4 (stereo unspecified) | > 100 | 
28 | CSc1ccc(C2C(Cl)C(=O)N2NC(=O)c2c(Cl)c(Cl)c(Cl)c(Cl)c2-c2nc3ccccc3[nH]2)cc1 (stereo unspecified) | > 100 | 
29 | Cc1[nH]c(=O)[nH]c(=S)c1C(=O)NC(C)(CO)CO | > 100 | 
30 | COc1ccccc1N1C(=O)/C(=C\c2cccc(Oc3ccccc3)c2)SC1c1ccccc1 (stereo unspecified) | > 100 | 
31 | CN(C)/N=C(\CCN1CCCC1)CC(c1ccccc1)c1c(O)c2ccccc2oc1=O (stereo unspecified) | > 100 | 
32 | COc1ccc(OC)c(/C=C/NC=O)c1 | > 100 | 
33 | Cc1ccc2nc3ccccc3c(C3C4C(=O)N(c5ccc(Br)cc5Cl)C(=O)C4ON3C(C(N)=O)c3ccccc3)c2c1 (stereo unspecified) | > 25 | 
34 | Cc1ccc(S(=O)(=O)OC2C3OC(C)(C)OC3OC2C(c2cc(O)c3c(c2O)C(=O)c2ccccc2C3=O)c2cc(O)c3c(c2O)C(=O)c2ccccc2C3=O)cc1 (stereo unspecified) | > 10 | 
35 | NCCCCn1c2c(c3ccccc3c1=O)C(=O)c1ccccc1-2 | 2.05 | 0.376
36 | CCCNC(=S)N/N=C(\C)c1ccccn1 | > 100 | 0.105
37 | CN(C)CC(CN(C)C)c1ccccn1 | > 100 | 
38 | COc1ccc2cc(C(=O)/C=C/c3cccc(OC)c3OC)ccc2c1 | 40.4 | 18.4
39 | CC(=O)OC[C@H]1[C@@H]2C(CC[C@]13CO3)OC(=O)CC(C)[C@]2(C)CCc1ccoc1 (stereo partly specified) | > 100 | 
40 | Cc1cc(NS(=O)(=O)c2ccc(NC(=O)c3cccc4c(=O)c5ccccc5[nH]c34)cc2)no1 | > 100 | 
41 | O=C(c1ccc(Cl)cc1Cl)N(C(=O)N1CCCCC1)c1ccccc1 | > 100 | 
42 | CC(=O)c1cccc2c1CC1(C2)Cc2ccc3c(c2C1=O)CCC3 (stereo unspecified) | > 100 | 
43 | Nc1nc(Cl)cc(NCC2(CO)CC(OCc3ccccc3)C2)n1 (stereo unspecified) | > 100 | 
44 | COC(=O)c1ccc2c(c1)n(Cc1ccc3ccccc3c1)c[n+]2Cc1ccc2ccccc2c1 | 4.57 | 1.6
45 | N#C/C(C(=S)Nc1ccccc1)=C1/NN=C2c3ccccc3C(=O)NN21 | > 100 | 33.7
46 | O=C(O)C1C(C(=O)O)C(C(=O)O)C1C(=O)O (stereo unspecified) | > 100 | 
47 | CCCCCCCCCCC(O)C1CCC(C2CCC(C(O)CCCCC(O)CCCCCC(O)CC3=CC(C)OC3=O)O2)O1 (stereo unspecified) | > 25 | 7.57
48 | Cn1cc(C2=C(c3cn(C)c4c(N)cccc34)C(=O)NC2=O)c2ccccc21 | > 24.1 | 3.68
49 | C1=C2C3=[N+](CCCC3)CC2Cc2ccsc21 (stereo unspecified) | > 100 | 
50 | O=C1SCC(O)=C1/C=N/Nc1nc2ccccc2o1 | > 100 | 

Row | Structure (SMILES) | TGI [µM] | GI50 [µM]
51 | NC(N)=NC(N)=Nc1cc2ccccc2c2ccccc12 | 23.9 | 11.4
52 | CC1(C)NC(=O)C(NC(=O)C(CC(=O)OCc2ccccc2)NC(=O)OCc2ccccc2)CCCCNC(=O)CCNC1=O (stereo unspecified) (Cbz-D(OBn)K[Aib][βAla]; lactam 2-C; configuration not given here) | > 100 | 
53 | S=C1Cc2c([nH]c3ccccc23)-c2ccccc2N1 | 99.3 | 
54 | N#CCCN(CCC#N)c1ccc(/C=C2\N=C(CN3C(=O)c4ccccc4C3=O)OC2=O)cc1 | > 100 | 
55 | O=C(CNc1ccc(Cl)cc1)Nn1c(-c2ccccc2)nc2ccccc2c1=O | 28.7 | 
56 | CC(C)(C)OC(=O)N(CCCN(CCn1c2c(c3ccccc3c1=O)C(=O)c1ccccc1-2)C(=O)OC(C)(C)C)CCn1c2c(c3ccccc3c1=O)C(=O)c1ccccc1-2 | > 50 | > 50
57 | CC(=O)[C@]1(O)Cc2c(O)c3c(c(O)c2C(OC2OC(C)C(O)C(O)C2F)C1)C(=O)c1ccccc1C3=O (stereo partly specified) | 31 | 
58 | COc1cc2c3c(n(CCCBr)c(=O)c2cc1OC)-c1ccc(NC(C)=O)cc1C3=O | > 100 | 30
59 | O=C(NCCCNC(=O)c1ccc2cc(O)c(O)cc2c1)c1ccc2cc(O)c(O)cc2c1 | > 100 | 
60 | C/C(=N\NC(=S)N1CC2CCC(CC2)C1)c1ccncn1 | 5.25 | 
61 | COc1cccc(NCc2nnc(Nc3ccc(Cl)cc3)c3ccccc23)c1 | 7.85 | 1.4
62 | COC(=O)C1=C(c2ccc3c(c2)OCO3)O[C@H](c2ccc3c(c2)OCO3)[C@H]1COC(C)=O | > 100 | 
63 | CCOCNC(=O)N(COCC)COCC | > 100 | 
64 | O=P(c1ccccc1)(c1ccccc1)C(NCc1ccccc1)c1ccc(F)cc1 (stereo unspecified) | 28.8 | 
65 | CCC1(O)C(=O)OCc2c1cc1n(c2=O)Cc2cc3c(N)cccc3nc2-1 (stereo unspecified) | 7.41 | 
66 | Cc1cc(NS(=O)(=O)c2ccc(N=Nc3c(O)c(C(=O)O)cc4ccccc34)cc2)nc(C)n1 | > 100 | 
67 | CC(C)CC(N)C(=O)O (stereo unspecified) | > 100 | 
68 | CC(C)CSc1nc(Nc2ccccc2)c(C#N)c(-c2ccc(F)cc2)n1 | 23 | 2.54
69 | Oc1ccc2ccccc2c1N=Nc1ccc(F)cc1 | > 100 | 
70 | Clc1cccc(Cl)c1C1SCC2=Nc3ccccc3CN21 (stereo unspecified) | 69.6 | 
71 | S=C(/N=c1/sc(Nc2ccccc2)nc2sc3c(c12)CCCC3)Nc1ccccc1 | > 62.5 | 
72 | Cc1cc(C)cc(Nc2cc(C)nc3nc(C(F)(F)F)nn23)c1 | > 100 | > 100
73 | Cc1cc(=O)[nH]c(NNC(C#N)c2ccc(O)cc2)n1 (stereo unspecified) | > 100 | 
